What all share (test): Primary Screen for Target Class Profiling of Small Molecule Inhibitors of Methyltransferases
Assay [1] has as its target Glycine N-methyltransferase (Homo sapiens) (UniProt Q14749). Particulars: purified enzyme, MTase-Glo SAH luminescence; measured here: GNMT inhibition; at 40 µM; stronger effect = lower value. The gist of the method: (§1)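 Each enzyme was reacted with SAM and its substrate, with compounds tested once at 40 uM; SAH formed was read by MTase-Glo luminescence.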
The target of assay [2] is Guanidinoacetate N-methyltransferase (Homo sapiens) (UniProt Q14353). Particulars: purified enzyme, MTase-Glo SAH luminescence; measured here: GAMT inhibition; at 40 µM; stronger effect = lower value. The gist of the method:
as §1

Assay [3] addresses Histamine N-methyltransferase (Homo sapiens) (UniProt P50135). The note with it: purified enzyme, MTase-Glo SAH luminescence; measured here: HNMT inhibition; at 40 µM; stronger effect = lower value. The procedure, abridged:
as §1

Assay [4] addresses Nicotinamide N-methyltransferase (Homo sapiens) (UniProt P40261). Particulars: purified enzyme, MTase-Glo SAH luminescence; measured here: NNMT inhibition; at 40 µM; stronger effect = lower value. The gist of the method: as §1
For assay [5], the target named is Phenylethanolamine N-methyltransferase (Homo sapiens) (UniProt P11086). Particulars: purified enzyme, MTase-Glo SAH luminescence; measured here: PNMT inhibition; at 40 µM; stronger effect = lower value. The gist of the method:
as §1

The list shows a part of the results. Shown are side measurements of this screen, not its main read-out; they come without a call.
% is set by controls: 0 for no effect and ±100 for the full control effect.

As to `OCCn1cc(-c2cnc3nnn(Cc4ccc5ncccc5c4)c3n2)cn1`, the activity change, negative = inhibition was -8.31% in assay [1]; -18.3% in assay [2]; -7.59% in assay [3]; -27.8% in assay [4]; -20.7% in assay [5].

As to `CC(C)Cc1ccc(S(=O)(=O)NCCn2cnc3ccccc32)cc1`, the activity change, negative = inhibition in assay [1] was -4.33%; in assay [2] it was 0%; in assay [3], 8.57%; in assay [4] it was 3.62%; in assay [5], 3.73%.

As to `CC(C)CC[C@@H](O)[C@](C)(O)[C@H]1CC[C@@]2(O)C3=CC(=O)[C@@H]4C[C@@H](O)[C@@H](O)C[C@]4(C)[C@H]3CC[C@]12C`, the activity change, negative = inhibition in assay [1] was 4%; in assay [2], 0.971%; in assay [3], 12.1%; in assay [4], -7.21%; in assay [5] it was 7.78%.

Turning to `C=C1C(=O)O[C@@H]2C[C@@]3(C)C[C@@H](O)C[C@H](C)C3=C[C@H]12`, the activity change, negative = inhibition was 2.4% in assay [1]; 6.15% in assay [2]; 9.38% in assay [3]; -5.55% in assay [4]; 1.05% in assay [5].

As for `CC1(C(=O)NC2CCCCCC2)Cn2c(nc3ccccc32)C(=O)N1CCCc1ccccc1` (stereo not given), the activity change, negative = inhibition in assay [1] is 2.03%; in assay [2], 6.78%; in assay [3] it was 7.07%; in assay [4] it was 4.66%; in assay [5], -0.516%.

With `CCOC(=O)C(C)Oc1ccc2c(-c3ccccc3)cc(=O)oc2c1C` (stereo not given), the activity change, negative = inhibition in assay [1] is -11.6%; in assay [2], 3.23%; in assay [3], -3.23%; in assay [4] it was -13.5%; in assay [5], -15.7%.

`O=[S+]([O-])(c1ccccc1)N1CCCC2(CC(c3cccc(C(F)(F)F)c3)=NO2)C1` (stereo not given): the activity change, negative = inhibition in assay [1] was -8.56%; in assay [2], -4.55%; in assay [3], -2.58%; in assay [4], -12.2%; in assay [5] it was -6.06%.

For the compound `Cc1nc2ccc(CN(C)c3ccc(C(=O)NC(CCC(=O)O)C(=O)O)s3)cc2c(=O)[nH]1` (stereo not given), the activity change, negative = inhibition in assay [1] is 1.64%; in assay [3] it was 11%.

As for `CN1CCN(Cc2nnc(C3CCN(C(=O)C4(N)CC4)CC3)n2C)CC1`, the activity change, negative = inhibition was -1.42% in assay [1]; -0.405% in assay [2]; -9.13% in assay [3]; -0.372% in assay [4]; -2.37% in assay [5].

For `c1cc(N[C@@H]2CCNC2)nc(-c2cnc3ccc(-c4cn[nH]c4)cn23)c1`, the activity change, negative = inhibition in assay [1] is -33.2%; in assay [2] it was -23%; in assay [3], -53.5%; in assay [4], -40%; in assay [5], -13.6%.

As for `COc1ccc2cc3n(c2c1)CC(C)(C(=O)NC1CCCCC1)N(C1CCCC(C)C1C)C3=O` (stereo not given), the activity change, negative = inhibition is 0.279% in assay [1]; 0% in assay [2]; 0.055% in assay [3]; -5.5% in assay [4]; -5.78% in assay [5].

`CC(C)N1C[C@H](O)C[C@H]1c1nnc2n1CCN(C(=O)CCc1c[nH]c3ccccc13)CC2`: the activity change, negative = inhibition in assay [1] was -1.61%; in assay [2], 2.05%; in assay [3], 3.91%; in assay [4], -1.79%; in assay [5] it was 15.2%.

For `Cn1c(=O)n(C)c2cc(S(=O)(=O)N3CCc4ccccc4C3)ccc21`, the activity change, negative = inhibition in assay [1] was 18.1%; in assay [2], 3.94%; in assay [3], 9.5%; in assay [4], 6.78%; in assay [5] it was 3.32%.

As for `CCOCCCN1C(=O)c2c(NC(C)=O)c3cc(F)ccc3n2CC1(C)C(=O)NC1CCCC1` (stereo not given), the activity change, negative = inhibition in assay [1] is -0.332%; in assay [2] it was 3.58%; in assay [3], 0.941%; in assay [4], -0.941%; in assay [5], -1.5%.

Consider `OC1(c2ccc(Cl)cc2)CCN(Cc2c[nH]c3ccccc23)CC1`, for which the activity change, negative = inhibition in assay [1] was 3.98%; in assay [2], 8.82%; in assay [3], -2.9%; in assay [4], -13.4%; in assay [5], 2.74%.

As for `O=C(c1cccnc1)N1CCC12Cc1ccccc1NC2=O` (stereo not given), the activity change, negative = inhibition in assay [1] was -7.41%; in assay [2], -6.58%; in assay [3] it was -2.81%; in assay [4], -14.2%; in assay [5], 9.41%.

With `CCC(=O)N1CCCCCCNC(=O)[C@@H]2C[C@@H](C(=O)N3CCN(c4ccccn4)CC3)C[C@@H]21`, the activity change, negative = inhibition was -3.02% in assay [1]; -6.97% in assay [2]; -2.23% in assay [3]; -8.39% in assay [4]; -2.1% in assay [5].

On to `O=c1cc(-c2cccnc2)oc2c(-c3cn[nH]c3)nccc12`, for which the activity change, negative = inhibition is -9.26% in assay [1]; -9.39% in assay [2]; -4.65% in assay [3]; -11.2% in assay [4]; -12.5% in assay [5].

For the compound `O=C(C1CCCCC1)N(CCN1CCN(c2ccccc2O)CC1)c1ccccn1`, the activity change, negative = inhibition in assay [1] was 2.12%; in assay [2], -2.92%; in assay [3] it was -6.33%; in assay [4], -16.1%; in assay [5], -8.15%.

Consider `CC1(C(=O)NC2CCCCCC2)Cn2c(cc3occc32)C(=O)N1Cc1cccc(F)c1` (stereo not given), for which the activity change, negative = inhibition in assay [1] is -4.9%; in assay [2], 1.99%; in assay [3], -6.32%; in assay [4], -8.79%; in assay [5], -6.26%.

Regarding `CC(C)n1cc(-c2ccc(Oc3ccccc3)cc2)c2c(N)ncnc21`, the results for the activity change, negative = inhibition in assay [2], in assay [4] and in assay [5] were -12.8%, -48.2% and -58.4%, respectively.

On to `COc1cc(C)c(-c2nc(CN3CCCC(CN)C3)c(C)o2)cc1C` (stereo not given), for which the activity change, negative = inhibition was 2.4% in assay [1]; 0.307% in assay [2]; -13.2% in assay [3]; -4.18% in assay [4]; -15.2% in assay [5].

Consider `NC(=Nc1ccccc1)NC(=O)c1nc(Cl)c(N)nc1N`, for which the activity change, negative = inhibition is -12.7% in assay [1]; 14.6% in assay [2]; 0.592% in assay [3]; -2.86% in assay [4]; 8.65% in assay [5].

On to `Clc1ccc(-c2cnc3ccccc3n2)cc1`, for which the activity change, negative = inhibition was -0.689% in assay [1]; 4.91% in assay [2]; 4.18% in assay [3]; 8.31% in assay [4]; -1.78% in assay [5].

As to `CC1(C(=O)N2CCOCC2)CN(Cc2ccccc2)Cc2ccc(Nc3ccccc3)nc21` (stereo not given), the activity change, negative = inhibition is -7.34% in assay [1]; -7.41% in assay [2]; -6.79% in assay [3]; -14.9% in assay [4]; -14.7% in assay [5].

Regarding `CCC(C)NC(=O)c1ccc2c(=O)n(C)c3nn(CC(=O)c4cc(C)ccc4C)c(=O)n3c2c1` (stereo not given), the activity change, negative = inhibition was found to be 8.69% in assay [1]; 2.83% in assay [2]; 11% in assay [3]; 1.02% in assay [4]; 7.23% in assay [5].

With `Cc1ccc(NC(=O)N2Cc3c(sc4c3CCCC4)-n3cccc3C2c2cccc(F)c2)cc1F` (stereo not given), the activity change, negative = inhibition in assay [1] was 0.122%; in assay [2], 0%; in assay [3], 8.01%; in assay [4] it was -0.313%; in assay [5], -3.26%.

As for `Cc1oc(C(C)C)cc1C(=O)N1CC[C@](C)(O)[C@@H](O)C1`, the activity change, negative = inhibition was -6.3% in assay [1]; -9.59% in assay [2]; -3.9% in assay [3]; -14.6% in assay [4]; -10.7% in assay [5].

Regarding `CCC(C)NC(=O)c1ccc2c(=O)n(C)c3nnc(SCC(=O)c4ccc(C)cc4C)n3c2c1` (stereo not given), the activity change, negative = inhibition in assay [1] was determined as 5.5%; in assay [2], 0.557%; in assay [3] it was 8.29%; in assay [4], 5.96%; in assay [5], 6.36%.

For the compound `Cn1cnc(CN2CCNc3cc(Nc4ccccc4)ncc3C2)c1`, the activity change, negative = inhibition is -14.8% in assay [1]; -3.61% in assay [2]; -84.4% in assay [3]; -16.3% in assay [4]; -18.4% in assay [5].

`CC(=O)Nc1ccc(CN2CCC[C@H]2c2nc(-c3ccc(N4CCC(C(N)=O)CC4)nc3)no2)cc1`: the activity change, negative = inhibition was -3.47% in assay [1]; -9.46% in assay [2]; -5.06% in assay [3]; -10.9% in assay [4]; -3.64% in assay [5].

For `CC(C)N1C(=O)C2(CCCC2)C1C(=O)N1CCc2ccccc21` (stereo not given), the activity change, negative = inhibition in assay [1] is -1.42%; in assay [2], -3.77%; in assay [3] it was -1.63%; in assay [4], -7.23%; in assay [5], -0.741%.

In the case of `CC1(C(=O)NCc2ccccc2)Cn2c(cc3ccccc32)C(=O)N1C1CC1` (stereo not given), the activity change, negative = inhibition was -6.52% in assay [1]; 0.565% in assay [2]; -2.6% in assay [3]; -4.22% in assay [4]; -4.16% in assay [5].

For `COc1cc(O)cc(OC2OC(CO)C(O)C(O)C2O)c1` (stereo not given), the activity change, negative = inhibition in assay [1] is 2.44%; in assay [2], 3.82%; in assay [3], 9.38%; in assay [4] it was -8.13%; in assay [5] it was -1.23%.

Regarding `CCC1c2ccc(C)n2CCN1C(=O)Nc1cccc(C)c1` (stereo not given), the activity change, negative = inhibition was 3.72% in assay [1]; 0.997% in assay [2]; 0.076% in assay [3]; 0.825% in assay [4]; 1.08% in assay [5].

With `COc1ccccc1CNC(=O)C1(C)Cn2c(cc3ccccc32)C(=O)N1Cc1ccccc1C` (stereo not given), the activity change, negative = inhibition is 2.88% in assay [1]; 4.06% in assay [2]; 3.91% in assay [3]; -0.265% in assay [4]; 1.47% in assay [5].

With `CCc1ccc(CNC(=O)CCCn2ccc3cc(S(=O)(=O)N4CCCC4)ccc32)cc1`, the activity change, negative = inhibition in assay [1] is 2.31%; in assay [2], 6.85%; in assay [3], 3.91%; in assay [4], -4.49%; in assay [5], 1.07%.

As to `Cc1cnc(C(=O)N2CC[C@H](CO)[C@H](NC(=O)C3CC3)C2)cn1`, the activity change, negative = inhibition in assay [1] is 1.03%; in assay [2] it was 2.67%; in assay [3], 0.08%; in assay [4], -5.78%; in assay [5], 15.5%.

Consider `Cc1ccc(Cn2c(=O)c3ccccc3n3c(=O)n(CC(=O)Nc4cc(Cl)ccc4C)nc23)cc1`, for which the activity change, negative = inhibition in assay [1] turned out to be 4.3%; in assay [2], 5.49%; in assay [3] it was 3.02%; in assay [4], 4.48%; in assay [5], 3.93%.

In the case of `O=C(NCc1ccc(OC(F)(F)F)cc1)c1cc(CN2CCOCC2)on1`, the activity change, negative = inhibition in assay [1] is -1%; in assay [2] it was -0.278%; in assay [3], 0.387%; in assay [4], -8.64%; in assay [5] it was -2.02%.

Values taken from PubChem BioAssay AID1745853 (National Center for Advancing Translational Sciences (NCATS), 2022).
